Results published in PubChem BioAssay AID651820 (National Center for Advancing Translational Sciences (NCATS), 2012).
Screen size: about 340,000 compounds; about 12,000 (3.5%) were called active. Inconclusive means that the source gave no clear call. Such entries were picked first, then a sample of the others. Calls follow the shape of the dose curve; as a rule, active = well fitted inhibition curve with a large enough effect; inconclusive = small, poorly fitted or top-dose-only effect, or another doubt; inactive = no such curve, though single readings can be large or run the other way. No potency is given beside an inconclusive call; the fits are too rough.

assay: qHTS Assay for Inhibitors of Hepatitis C Virus (HCV); details: Huh7.5.1 HCVcc-Cre (HCVcc is cell-culture hepatitis C virus) infection, luciferase reporter, 44 h; activity change, negative = inhibition: at 41.8 µM (top of the series)
Outline: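 Seed cells (1,000/well) for 4 h; treat with compound and infect with HCVcc-Cre, moi about 0.5. Incubate 44 h, then detect luciferase activity.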
% is scaled to controls: 0 for no effect and ±100 for the full control effect; potency is read from the fitted curve at half-maximal effect; tags tell the direction and shape of the fitted curve.

Row | Compound | Potency | activity change, negative = inhibition
1 | O=C(Nc1ccccc1N1CCN(C(=O)c2ccccc2)CC1)c1ccc(Br)o1 | inconclusive [inhibitor, single point] | 
2 | Cc1ccccc1N1CCN(C2CCCN(C(=O)c3cn4cccc(C)c4n3)C2)CC1 (stereo not given) | active: 11.2 µM | 
3 | CCOc1ccccc1N1CCN(C(=S)NCc2ccc(Cl)cc2)CC1 | inconclusive [inhibitor, single point] | 
4 | O=C(Cn1nnc(-c2cc(C(F)(F)F)cc(C(F)(F)F)c2)n1)NNC(=S)Nc1ccc(Cl)cc1 | inconclusive [inhibitor, single point] | 
5 | O=C(CNC(=O)c1ccc(Cl)cc1)OCC(=O)c1ccc2c(c1)OCCO2 | inactive | 
6 | COc1ccc(-c2cc(C(=O)Nc3c(C)nn(Cc4ccccc4Cl)c3C)no2)cc1OC | active: 8.91 µM | 
7 | COc1ccc(NC(=O)c2cc([N+](=O)[O-])ccc2N2CCCC2)cc1S(N)(=O)=O | inactive | 
8 | CN1CCN(Cc2cccc(Oc3ccc(Cl)cc3)c2)CC1 | inconclusive [inhibitor, partial curve] | 
9 | CCc1ccc(NC(=O)C2CCN(S(=O)(=O)c3ccc4[nH]c(=O)ccc4c3)CC2)cc1 | inactive | 
10 | COc1ccc(/C=C/C(=O)Nc2ccc(-c3nnc4n3CCCCC4)cc2)c(OC)c1 | inconclusive [inhibitor, single point] | 
11 | Cc1ccc(NC(=O)Cn2c(=O)c3cccn3c3ccccc32)c(Cl)c1 | inactive | 
12 | CCN1CCN(C(c2ccc(OC)c(OC)c2)c2nnnn2C(C)(C)C)CC1 (stereo not given) | inconclusive [inhibitor, full curve] | 
13 | O=C(OCCN1CCCCC1)c1c[nH]c2ccccc12 | inconclusive [inhibitor, single point] | 
14 | Cc1cc(NC(=O)CSc2nc3c([nH]c4ccccc43)c(=O)n2-c2cccc(C(F)(F)F)c2)no1 | inconclusive [inhibitor, partial curve] | 
15 | CNc1oc(-c2cccc3ccccc23)nc1C#N | inconclusive [inhibitor, single point] | 
16 | O=C(/C=C/c1ccc(Cl)cc1)NC(=S)Nc1ccc(NC(=O)c2ccco2)cc1 | inconclusive [inhibitor, full curve] | 
17 | Cc1ccccc1-c1cc(C(=O)NCc2cccc(Br)c2)n(CC2CC(c3cccnc3)=NO2)n1 (stereo not given) | inconclusive [inhibitor, full curve] | 
18 | Cc1ccc(NS(=O)(=O)c2cccc(C(=O)NCC(c3cccs3)N(C)C)c2)cc1 (stereo not given) | inconclusive [inhibitor, partial curve] | 
19 | COc1ccc(NC(=S)N(CCC(C)C)C2CCN(C(C)C)CC2)cc1 |  | inconclusive: -31.6% [inhibitor]
20 | CCN1CCN(C(=O)c2ccc(Cl)c(S(=O)(=O)N3CCOCC3)c2)CC1 | inactive | 
21 | COC(=O)c1[nH]c2ccc(Br)cc2c1NC(=O)CN1CCCCC1CCO (stereo not given) | inconclusive [inhibitor, partial curve] | 
22 | CCc1nc(NCc2cccnc2)c2oc3ccccc3c2n1 | inconclusive [inhibitor, single point] | 
23 | COc1ccc(C2c3c(ncn(CCCN4CCOCC4)c3=N)Oc3ccc4ccccc4c32)cc1OC (stereo not given) | active: 22.4 µM | 
24 | CC(C)COC(=O)c1nnsc1NC(=O)Nc1ccccc1 | inconclusive [inhibitor, partial curve] | 

Row | Compound | Potency | activity change, negative = inhibition
25 | CC(C)(C)C(=O)Nc1nc2c(s1)CN(Cc1ccccc1)CC2 | inconclusive [inhibitor, single point] | 
26 | CC(C)CN(C(=O)CCNC(=O)c1ccc([N+](=O)[O-])cc1)C1CCS(=O)(=O)C1 (stereo not given) | inactive | 
27 | CCOC(=O)c1c(NC(=O)CCN2CCOCC2)sc2c1CC(C)(C)OC2 | inconclusive [inhibitor, full curve] | 
28 | COc1ccc(N2CCN(C(=O)CN(c3ccc(OC)cc3)S(=O)(=O)c3ccccc3)CC2)cc1 | inconclusive [inhibitor, partial curve] | 
29 | O=c1c(Cl)c(N2CCN(S(=O)(=O)c3ccc(F)cc3)CC2)cnn1-c1cccc(Cl)c1 | inconclusive [inhibitor, single point] | 
30 | O=[N+]([O-])c1ccc(Cl)c([N+](=O)[O-])c1 | inconclusive [inhibitor, single point] | 
31 | O=c1[nH]c(COc2ccc(Br)cc2Cl)nc2ccccc12 | inactive | 
32 | OCCn1c(C(F)(F)F)nc2ccccc21 | inactive | 
33 | Cc1cccc(Nc2nc3c(S(=O)(=O)c4ccccc4)nnn3c3ccccc23)c1C | inconclusive [inhibitor, full curve, poor fit] | 
34 | O=C(COc1ccc(F)cc1Cl)NC1CCCCCC1 | inconclusive [inhibitor, partial curve] | 
35 | COc1ccc(S(=O)(=O)Nc2ccc(O)c3ccccc23)cc1 | inconclusive [inhibitor, single point] | 
36 | COc1ccc2nc(NC(=O)c3cccs3)sc2c1 | inactive | 
37 | CCCC(=O)Nc1cc(C)c2c(=O)oc3ccccc3c2n1 | inactive | 
38 | CCOc1ccc2nc(C)cc(Nc3cccc([N+](=O)[O-])c3)c2c1 | inconclusive [inhibitor, partial curve] | 
39 | COC(=O)c1c(NC(=O)C2COc3ccccc3O2)sc2c1CCN(Cc1ccccc1)C2 (stereo not given) | inconclusive [inhibitor, full curve] | 
40 | CCOC(=O)c1[nH]c2cc(OC)c(OC)cc2c1NC(=O)c1nonc1C | inconclusive [inhibitor, partial curve] | 
41 | O=c1c2cc(Cl)ccc2[nH]c(=S)n1Cc1ccco1 | inconclusive [inhibitor, single point] | 
42 | O=C(Nc1ccc2nc3n(c(=O)c2c1)CCCCC3)c1c(F)ccc([N+](=O)[O-])c1F | active: 14.1 µM | 
43 | CN1CCN(c2nc(Nc3ccc(F)cc3)nc(Nc3ccc(F)cc3)n2)CC1 | inconclusive [inhibitor, single point] | 
44 | O=C(N/N=C/c1ccccn1)c1cc(-c2ccncc2)nc2ccccc12 | inactive | 
45 | COc1ccc(/C=N/NC(=O)c2ccc(OC)c(OC)c2)cc1COc1c(F)c(F)c(F)c(F)c1F | active: 3.55 µM | 
46 | CCCCCCc1cc2cc(-c3nnc(-c4ccccc4O)o3)c(=O)oc2cc1O | inconclusive [inhibitor, single point] | 
47 | CCC(=O)N1CCc2cc(Br)cc(S(=O)(=O)CCC(=O)NCc3ccco3)c21 | inactive | 
48 | CCNc1nc(N)nc(Oc2ccc(C(=O)OC)cc2)n1 | inconclusive [inhibitor, single point] | 

Row | Compound | Potency | activity change, negative = inhibition
49 | COc1cc(CN2CCN(CC3CC3)CC2CCO)cc(OC)c1 (stereo not given) | inactive | 
50 | Cc1ccc([N+](=O)[O-])cc1N=Nc1c(C)[nH]n(C(N)=S)c1=O | inactive | 
51 | COc1ccc(C2/C=C\CN(C(=O)c3ccccc3)[C@H](Cc3ccccc3)C(=O)N2Cc2ccc(F)cc2)cc1 (stereo not given in full) | inconclusive [inhibitor, single point] | 
52 | Cc1cc[n+](CC(=O)c2ccc3c(c2)OCCO3)cc1 | inactive | 
53 | Cc1ccc(C(=O)C=Cc2cccc(C)c2)cc1 | inactive | 
54 | Cc1ccc(NC(=O)CSc2ccc(-c3ccccn3)nn2)cc1F | inconclusive [inhibitor, partial curve] | 
55 | COC(=O)C1=C(c2ccc(Cl)c(C(F)(F)F)c2)C[C@@H]2CC[C@H]1N2C(=O)N1CCC(O)(c2ccc(Cl)cc2)CC1 | active: 10 µM | 
56 | Cn1c(=O)c(=O)n(C)c2cc(S(=O)(=O)N3CCCC3C(=O)Nc3ccc(F)cc3)ccc21 (stereo not given) | inactive | 
57 | COc1ccc2c(c1OC)C(=O)OC2C/C(=N\NC(N)=O)c1ccccc1 (stereo not given) | inactive | 
58 | Cc1cccc(NS(=O)(=O)c2ccc(C)c(C(=O)NCC(c3cccs3)N(C)C)c2)c1 (stereo not given) | inconclusive [inhibitor, single point] | 
59 | O=C(/C=C\c1ccco1)Nc1cc([N+](=O)[O-])ccc1F | inactive | 
60 | O=C(NCc1ccccn1)c1ccc(Cn2c(=S)[nH]c3ccc(Br)cc3c2=O)cc1 | inconclusive [inhibitor, full curve] | 
61 | COc1ccc2c(c1)c(CC(=O)OC(C)C(=O)N(C)C)c(C)n2C(=O)c1ccc(Cl)cc1 (stereo not given) | inconclusive [inhibitor, single point] | 
62 | CCOc1ccc2nc(N3CCCC(C(=O)NCCCN4CC(C)CC(C)C4)C3)sc2c1 (stereo not given) | inconclusive [inhibitor, full curve] | 
63 | Cc1cccc(NC(=S)N2CCN(S(=O)(=O)c3ccccc3)CC2)c1 | inactive | 
64 | Cc1cc(CCNC=O)c(C)c2c1oc1ccccc12 | inconclusive [inhibitor, partial curve] | 
65 | CC1(C)CC(=O)C=C(c2ccc(-c3ccccc3)cc2)C1 | inactive | 
66 | COc1ccc(CN(C)C(c2ccccc2)c2nnnn2-c2ccccc2C)c(OC)c1C (stereo not given) | inactive | 
67 | N=c1c2c(-c3ccccc3)c(-c3ccccc3)oc2ncn1CCCN1CCOCC1 | inconclusive [inhibitor, full curve] | 
68 | Cc1cc2cc3c(cc2nc1SCC(=O)OC(C)C)OCO3 | inconclusive [inhibitor, full curve, poor fit] | 
69 | O=C(O)C1=CC[C@@H](c2ccc(Cl)cc2)N(S(=O)(=O)c2ccc(Cl)cc2)[C@H]1c1cccc(Cl)c1 | inactive | 
70 | Cc1cccc(NC(=O)CN(C)CC(=O)NC(c2ccccc2)c2ccccc2)c1C | inconclusive [inhibitor, partial curve, poor fit] | 
